In the supplement of paper PMC7826260:
The other results are listed elsewhere or left out. Cleavage of a single-stranded DNA pool by Rep nickase domains was read by sequencing (3 µM enzyme, 1 h, 37 °C); shown is the middle of each 90-letter strand. The score is log2 (uncut reads / reads without enzyme); more negative means more cut, near 0 not cut, and no call is made. Because reads are shares of a total, they shift together; uncut strands gain when others are lost, and binding without cutting may add a little.

Tests used:
Assay in all cases: uncleaved DNA left, log2 of reads against the no-enzyme library (log2 ratio); higher = less cleavage (more negative = more Rep cleavage of the k-mer); sequences stand for … in CTCGTCCG…ACCGGAGA
[1] = test system: T1, Rep nickase domain of Muscovy duck circovirus
T1 sequence (residues 1-111 of Rep, tag left off): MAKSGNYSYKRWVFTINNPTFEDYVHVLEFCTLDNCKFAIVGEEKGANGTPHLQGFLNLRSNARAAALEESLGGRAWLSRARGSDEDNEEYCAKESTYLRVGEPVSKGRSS
Protocol: (§1)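 A pool of 90-nt single-stranded DNAs with seven random bases just before the constant AC of the nick site (name = the seven bases) was cut by 3 µM recombinant His6-SUMO-tagged Rep nickase domain (300 nM DNA, 50 mM HEPES pH 8.0, 50 mM NaCl, 1 mM MnCl2, 1 h, 37 °C, three replicates). Uncut DNA was amplified and sequenced.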

[2] = test system: T2, Rep nickase domain of banana bunchy top virus
T2 sequence (residues 1-94 of Rep, tag left off): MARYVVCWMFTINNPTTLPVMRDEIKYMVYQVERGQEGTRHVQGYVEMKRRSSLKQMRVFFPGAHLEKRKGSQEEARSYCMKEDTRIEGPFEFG
Protocol: as §1

[3] = test system: T3, Rep nickase domain of cabbage leaf curl virus
T3 sequence (residues 1-116 of Rep, tag left off): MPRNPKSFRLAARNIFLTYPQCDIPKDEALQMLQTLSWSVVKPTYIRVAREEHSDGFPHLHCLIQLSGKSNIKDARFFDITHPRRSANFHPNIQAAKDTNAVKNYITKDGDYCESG
Protocol: as §1

[4] = test system: T4, Rep nickase domain of chickpea chlorotic dwarf virus
T4 sequence (residues 1-124 of Rep, tag left off): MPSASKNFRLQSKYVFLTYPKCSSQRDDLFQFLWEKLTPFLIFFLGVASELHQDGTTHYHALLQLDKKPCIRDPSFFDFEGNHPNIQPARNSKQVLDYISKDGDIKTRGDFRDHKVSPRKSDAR
Protocol: as §1

[5] = test system: T5, Rep nickase domain of faba bean necrotic yellows virus
T5 sequence (residues 1-98 of Rep, tag left off): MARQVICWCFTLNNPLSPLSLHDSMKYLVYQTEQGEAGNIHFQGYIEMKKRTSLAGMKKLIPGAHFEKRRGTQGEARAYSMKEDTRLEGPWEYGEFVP
Protocol: as §1

[6] = test system: T6, Rep nickase domain of maize striate mosaic virus
T6 sequence (residues 1-117 of Rep, tag left off): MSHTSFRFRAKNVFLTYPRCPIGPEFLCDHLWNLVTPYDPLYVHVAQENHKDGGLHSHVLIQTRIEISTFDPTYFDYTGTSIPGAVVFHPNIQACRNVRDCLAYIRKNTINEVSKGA
Protocol: as §1

[7] = test system: T7, Rep nickase domain of porcine circovirus 2
T7 sequence (residues 2-116 of Rep, tag left off): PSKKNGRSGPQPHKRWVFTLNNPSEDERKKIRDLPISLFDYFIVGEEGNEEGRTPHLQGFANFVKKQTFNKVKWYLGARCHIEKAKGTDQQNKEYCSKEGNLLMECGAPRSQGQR
Protocol: as §1

[8] = test system: T8, Rep nickase domain of tomato golden mosaic virus
T8 sequence (residues 1-124 of Rep, tag left off): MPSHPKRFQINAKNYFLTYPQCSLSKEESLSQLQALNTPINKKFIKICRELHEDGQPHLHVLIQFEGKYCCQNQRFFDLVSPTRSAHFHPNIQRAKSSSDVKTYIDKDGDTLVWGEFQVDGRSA
Protocol: as §1

[9] = test system: T9, Rep nickase domain of tomato yellow leaf curl virus
T9 sequence (residues 1-136 of Rep, tag left off): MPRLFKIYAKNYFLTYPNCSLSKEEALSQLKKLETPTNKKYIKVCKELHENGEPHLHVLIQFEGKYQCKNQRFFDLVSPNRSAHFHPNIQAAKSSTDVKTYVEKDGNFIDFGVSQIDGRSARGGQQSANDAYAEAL
Protocol: as §1

[10] = test system: T10, Rep nickase domain of wheat dwarf virus
T10 sequence (residues 1-137 of Rep, tag left off): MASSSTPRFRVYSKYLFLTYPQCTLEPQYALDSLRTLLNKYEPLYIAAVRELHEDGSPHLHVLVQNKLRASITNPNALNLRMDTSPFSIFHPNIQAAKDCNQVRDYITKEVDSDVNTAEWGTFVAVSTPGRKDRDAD
Protocol: as §1

Sequence	uncleaved DNA left (log2) [1]	uncleaved DNA left (log2) [2]	uncleaved DNA left (log2) [3]	uncleaved DNA left (log2) [4]	uncleaved DNA left (log2) [5]	uncleaved DNA left (log2) [6]	uncleaved DNA left (log2) [7]	uncleaved DNA left (log2) [8]	uncleaved DNA left (log2) [9]	uncleaved DNA left (log2) [10]
CGCACAC	0.137	0.0723	0.0778	0.139	0.00141	-0.191	0.0497	-0.0686	-0.0578	0.0103
GGATGCC	-0.0536	-0.129	0.24	0.83	-0.0482	0.787	0.0446	-0.0299	-0.106	-0.0358
ACCGGAC	0.0482	0.0284	0.66	1.16	0.0546	1.64	0.193	0.00357	-0.0263	0.0376
AGCACCC	-0.00916	-0.0596	0.328	0.811	-0.114	1.18	-0.123	-0.0366	-0.0567	-0.0234
CTGTACT	-3.15	-1.99	-0.28	-2.58	-2.47	-0.492	-3.51	-0.163	0.0861	-0.0806
GGCGGAT	0.044	0.0638	0.48	1.43	0.0209	1.94	0.17	0.17	-0.0654	0.0371
TCGCATC	0.0621	-0.0209	0.00109	-0.111	-0.097	-0.532	0.0235	0.0583	0.081	0.126
AACCGTA	-0.123	-0.152	-0.253	-1.85	-0.0309	-1	-0.336	-0.123	-0.188	-0.139
AACAGTG	-0.0159	-0.0695	-0.784	-0.705	-0.0506	-1.21	0.177	-0.0608	0.0685	-0.12
TACGAGG	0.0834	0.0458	0.402	0.91	0.13	0.805	0.117	0.207	-0.0215	0.102
CACGACG	-0.0273	-0.000132	-0.562	-0.496	0.0648	-0.939	0.154	-0.0446	0.0554	-0.0607
TAGAAAA	0.139	0.113	0.2	-0.478	0.103	-0.232	-0.758	0.0467	0.177	0.227
GTTACAT	0.00414	0.167	0.592	1.45	0.012	2.1	0.185	0.0151	0.169	0.166
TTAAAGA	0.0763	0.125	0.0749	0.0519	0.0343	-0.664	0.127	0.0535	0.142	0.088
TGAAAAG	0.0978	0.0325	-0.552	-0.545	0.0911	-1.03	0.14	-0.0213	0.0205	0.00806
ACGTGCA	-0.0709	0.0923	-0.632	-0.732	-0.0578	-0.959	-0.206	-0.0241	0.0381	-0.00879
GGCGGTA	0.105	0.00838	0.277	0.626	0.0845	0.988	-0.226	0.121	-0.0681	-0.038
GGGTCGG	0.124	0.0958	0.875	1.9	-0.00908	2.28	0.273	0.111	0.0279	0.215
GTGAATA	-0.0412	0.178	0.34	0.943	0.00733	1.76	0.0597	0.0576	0.109	0.13
AGATACT	-3.51	-0.0673	-0.646	-2.59	0.0463	0.489	-3.48	-0.0367	0.123	-0.481
TTACGAT	0.136	-0.145	-0.179	-2.11	-0.0939	0.275	-0.187	-0.138	-0.145	-0.192
TTGTTCA	0.0125	0.0835	0.264	-0.351	0.0824	0.173	-0.117	-0.00146	0.126	0.107
TTCGCAC	-0.00946	-0.105	-0.231	-0.497	-0.169	-1.11	-0.112	-0.0964	-0.0344	0.0561
CAACACC	-0.119	-0.134	-0.271	-1.49	-0.0734	-0.677	-0.18	-0.0722	-0.153	-0.0781
GGCTAAC	-0.0724	-0.0243	0.237	0.794	-0.0194	1.53	0.117	-0.121	-0.0431	-0.0411
TAAGGAT	0.035	0.0694	0.141	1.59	0.0345	1.86	0.0823	0.107	-0.164	-0.0438
AACCGAT	0.117	0.0982	0.202	0.541	0.0173	0.967	-0.194	0.108	-0.123	0.134
GGCTTAT	-0.131	-0.0703	0.472	1.01	-0.0203	1.66	-0.53	-0.122	-0.133	0.0177
TGCGCGC	-0.268	-0.118	-0.658	-0.728	-0.101	-0.911	-0.0369	-0.104	-0.214	-0.188
